{"source": "PubChem BioAssay AID504332", "about": "(National Center for Advancing Translational Sciences (NCATS), 2011)", "note": "In all, about 350,000 compounds went through this assay and about 31,000 (8.9%) were called active. Inconclusive means that the source gave no clear call. Such entries were picked first, then a sample of the others. Calls come from the whole dose curve; as a rule, active = well fitted inhibition curve with a large enough effect; inconclusive = small, poorly fitted or top-dose-only effect; inactive = no such curve, though single readings can be large or run the other way. Potencies beside an inconclusive call are fits to weak or partial responses and may not hold up.", "data": [{"molecular_target": "Histone-lysine N-methyltransferase EHMT2 (Homo sapiens) (UniProt Q96KQ7)", "sequence (Q96KQ7 whole entry, looked up)": "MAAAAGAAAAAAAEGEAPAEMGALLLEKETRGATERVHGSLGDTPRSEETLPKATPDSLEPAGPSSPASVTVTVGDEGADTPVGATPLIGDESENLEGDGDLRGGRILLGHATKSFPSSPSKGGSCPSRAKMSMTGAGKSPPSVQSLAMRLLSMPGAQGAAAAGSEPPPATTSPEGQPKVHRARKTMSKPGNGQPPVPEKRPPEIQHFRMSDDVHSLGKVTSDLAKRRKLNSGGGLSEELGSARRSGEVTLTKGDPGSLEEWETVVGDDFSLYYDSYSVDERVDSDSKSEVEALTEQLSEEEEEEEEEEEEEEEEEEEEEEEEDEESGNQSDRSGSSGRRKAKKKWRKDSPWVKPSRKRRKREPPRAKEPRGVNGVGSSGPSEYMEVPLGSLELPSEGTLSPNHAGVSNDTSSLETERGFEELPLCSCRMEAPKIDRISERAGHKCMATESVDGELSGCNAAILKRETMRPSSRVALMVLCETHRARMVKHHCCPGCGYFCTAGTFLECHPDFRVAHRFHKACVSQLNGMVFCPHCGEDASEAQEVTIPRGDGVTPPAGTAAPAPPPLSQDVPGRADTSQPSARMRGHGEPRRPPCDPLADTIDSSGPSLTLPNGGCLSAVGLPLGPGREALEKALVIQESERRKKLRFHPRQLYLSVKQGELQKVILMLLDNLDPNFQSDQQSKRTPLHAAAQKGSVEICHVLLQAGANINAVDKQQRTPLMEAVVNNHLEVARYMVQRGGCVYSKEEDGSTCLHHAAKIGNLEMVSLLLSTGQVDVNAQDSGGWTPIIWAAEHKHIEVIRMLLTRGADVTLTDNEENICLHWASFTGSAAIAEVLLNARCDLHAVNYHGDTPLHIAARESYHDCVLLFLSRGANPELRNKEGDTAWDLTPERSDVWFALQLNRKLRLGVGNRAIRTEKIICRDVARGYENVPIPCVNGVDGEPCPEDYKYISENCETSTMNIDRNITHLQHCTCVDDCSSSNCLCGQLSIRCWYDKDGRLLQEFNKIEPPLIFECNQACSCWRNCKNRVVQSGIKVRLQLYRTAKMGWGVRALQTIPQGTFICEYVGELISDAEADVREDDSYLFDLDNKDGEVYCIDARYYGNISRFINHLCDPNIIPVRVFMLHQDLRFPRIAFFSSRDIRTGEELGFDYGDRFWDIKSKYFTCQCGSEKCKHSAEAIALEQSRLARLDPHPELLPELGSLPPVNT", "experiment": "qHTS Assay for Inhibitors of Histone Lysine Methyltransferase G9a; note: nearly all actives have a fitted effect of over 75% in size; note: potency is the fitted concentration of half-maximal effect; tags give direction and shape of the fitted curve; for activity, negative = inhibition: % is set by controls: 0 for no effect and ±100 for the full control effect", "conditions": "G9a H3K9 monomethylation, AlphaScreen, 2 h; activity, negative = inhibition: at 59 µM (top of the series) unless noted", "method_in_brief": "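Step 1: enzyme (final 20 nM) with compound, 15 min RT. Step 2: substrate peptide 500 nM and SAM 20 uM, 2 h RT. Step 3: anti-H3K9me1 antibody and AlphaScreen beads, 10 min, then plate read.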", "values": [{"molecule": "Cc1ccc2c(c1)c1c3n2CCN(C(=O)CCl)C3CCC1", "note": "(centres undefined)", "Potency": "inconclusive: 44.7 µM [inhibitor, partial curve, poor fit]"}, {"molecule": "CC(C)[C@@H]1N[C@]2(C(=O)Nc3ccccc32)[C@@H]2C(=O)N(c3cccc(C(F)(F)F)c3)C(=O)[C@@H]21", "Potency": "active: 50.1 µM"}, {"molecule": "O=C(COc1ccccc1[N+](=O)[O-])Nc1cccc(-c2nc3ccccc3s2)c1", "Potency": "inconclusive: 8.91 µM [inhibitor, partial curve, poor fit]"}, {"molecule": "COc1coc(/C=C/C(=O)O)cc1=O", "activity, negative = inhibition": "inactive: -36.3% [at 102 µM]"}, {"molecule": "CSc1ccc(S(=O)(=O)NCC(=O)OCC(=O)N2CCCC2=O)cc1[N+](=O)[O-]", "Potency": "inconclusive: 79.4 µM [inhibitor, single point]"}, {"molecule": "O=C(NC1(C(F)(F)F)NC(=O)N(Cc2ccco2)C1=O)c1cccs1", "note": "(centres undefined)", "Potency": "inconclusive: 31.6 µM [inhibitor, single point]"}, {"molecule": "CC(C)C(=O)OC/C(O)=C(\\C#N)c1nc2ccccc2[nH]1", "Potency": "inconclusive: 89.1 µM [inhibitor, partial curve, poor fit]"}, {"molecule": "O=C(CN(CC1CCCO1)C(=O)CNS(=O)(=O)c1ccc(Cl)cc1)NCc1ccco1", "note": "(centres undefined)", "activity, negative = inhibition": "inactive: 14.4% [at 102 µM]"}, {"molecule": "Cc1ccc(-c2ccc(CCC(=O)O)n2-c2ccc(C(=O)O)cc2)cc1", "Potency": "active: 31.6 µM"}, {"molecule": "Cc1cc(C)c2oc(C(=O)NC3CCS(=O)(=O)C3)cc(=O)c2c1", "note": "(centres undefined)", "activity, negative = inhibition": "inactive: 35.7% [at 102 µM]"}, {"molecule": "NNC(=O)c1ccc(CSc2cccc3cccnc23)cc1", "activity, negative = inhibition": "inactive: 4.93% [at 102 µM]"}, {"molecule": "Cc1ccc(OC(=O)COc2ccccc2)c(-n2nc3ccccc3n2)c1", "activity, negative = inhibition": "inactive: 73.7% [at 102 µM]"}, {"molecule": "CC(C)[C@H](NS(=O)(=O)c1cccc(Cl)c1)C(=O)OCC(=O)N1CCN(c2ccccc2)CC1", "Potency": "inconclusive: 50.1 µM [inhibitor, partial curve, poor fit]"}, {"molecule": "CSc1ccccc1OCc1cc(C(=O)N(C)C(C)c2ccccn2)no1", "note": "(centres undefined)", "Potency": "inconclusive: 31.6 µM [inhibitor, partial curve, poor fit]"}, {"molecule": "O=C(COCc1cc(-c2ccc3c(c2)OCO3)on1)NCc1ccccc1Cl", "activity, negative = inhibition": "inactive: -1.41%"}, {"molecule": "Cn1nc(C(=O)N2CCN(c3ccccn3)CC2)c2ccccc2c1=O", "activity, negative = inhibition": "inactive: -1.48% [at 102 µM]"}, {"molecule": "COc1ccccc1NC(=O)C1CCCN1S(=O)(=O)c1ccc(Cl)cc1", "note": "(centres undefined)", "activity, negative = inhibition": "inactive: 34.2% [at 102 µM]"}, {"molecule": "CCOc1ccc(CN2CCC(n3nccc3NC(=O)c3ccccc3OC)CC2)cc1", "Potency": "inconclusive: 3.16 µM [inhibitor, partial curve, poor fit]"}, {"molecule": "O=C(NC1CCN(Cc2ccccc2)CC1)c1ccc(Cn2c(=S)[nH]c3ccc(N4CCOCC4)cc3c2=O)cc1", "activity, negative = inhibition": "inactive: 2.48%"}, {"molecule": "Cc1[nH]nc(SCC(=O)Nc2ccc(C#N)cc2)c1[N+](=O)[O-]", "Potency": "active: 35.5 µM"}, {"molecule": "Oc1ccc(Br)cc1-c1cc(-c2ccco2)[nH]n1", "Potency": "inconclusive: 3.16 µM [inhibitor, single point]"}, {"molecule": "COc1ccc(Cl)cc1NC(=S)NNC(=O)CC(C)C", "activity, negative = inhibition": "inactive: 24.6% [at 12.7 µM]"}, {"molecule": "CCc1c(C)nc2ncnn2c1Nc1ccc(C#N)c(Cl)c1", "Potency": "inconclusive: 1 µM [inhibitor, single point]"}, {"molecule": "CC(=O)Oc1ccc(-c2cccc(C(=O)OCC(=O)N(C)c3ccccc3)c2)cc1", "activity, negative = inhibition": "inactive: 21.6%"}, {"molecule": "COc1ccc(N2CCN(C(=O)C3CCN(C(=O)c4cccc(Cl)c4)CC3)CC2)cc1", "activity, negative = inhibition": "inactive: -18% [at 102 µM]"}, {"molecule": "CCOc1ccc(Oc2ccc(NC(=O)CSc3nncn3C)cc2)cc1", "Potency": "inconclusive: 44.7 µM [inhibitor, partial curve, poor fit]"}, {"molecule": "CC(C(=O)N=Nc1c(O)n(C)c2ccc(Br)cc12)n1cnc2ccccc2c1=O", "note": "(centres undefined)", "Potency": "inconclusive: 25.1 µM [inhibitor, full curve]"}, {"molecule": "COc1cccc(CNS(=O)(=O)c2ccc3c(c2)CCN3C(=O)C2CC2)c1", "Potency": "inconclusive: 44.7 µM [inhibitor, partial curve, poor fit]"}, {"molecule": "O=c1[nH][nH]c(-c2ccccc2)c1C=Nc1cccc(Cl)c1", "Potency": "inconclusive: 89.1 µM [inhibitor, single point]"}, {"molecule": "CC(=N[C@@H]1CCCC[C@H]1N=C(C)c1ccccc1O)c1ccccc1O", "Potency": "inconclusive: 1.58 µM [inhibitor, partial curve, poor fit]"}, {"molecule": "CCCSc1nnc(NC(=O)c2nc(SC)ncc2Cl)s1", "Potency": "inconclusive: 89.1 µM [inhibitor, single point]"}, {"molecule": "COc1cccc(-c2noc(CCC(=O)NC3CCCCC3)n2)c1", "activity, negative = inhibition": "inactive: 5.71% [at 12.7 µM]"}, {"molecule": "C=CCOc1ccc(/C=C/C(=O)OCC(=O)N(C)CC(=O)Nc2ccccc2Cl)cc1", "activity, negative = inhibition": "inactive: -3.99% [at 102 µM]"}, {"molecule": "O=C(O)c1ccc(Cl)c(S(=O)(=O)Nc2ccc3[nH]c(=O)[nH]c3c2)c1", "Potency": "inconclusive: 50.1 µM [inhibitor, partial curve, poor fit]"}, {"molecule": "CC(=O)Nc1ccc(NC(=O)COC(=O)c2c3c(nc4ccccc24)CCN(Cc2ccccc2)C3)cc1", "Potency": "active: 50.1 µM"}, {"molecule": "Cc1ccccc1OCC(=O)N(Cc1ccc(N(C)C)cc1)C1CCS(=O)(=O)C1", "note": "(centres undefined)", "Potency": "active: 31.6 µM"}, {"molecule": "NC(=O)c1ccc2[nH]ccc2c1", "activity, negative = inhibition": "inactive: -2.51%"}, {"molecule": "Cc1ccc(N(CC2CO2)S(=O)(=O)c2ccc([N+](=O)[O-])cc2)cc1", "note": "(centres undefined)", "Potency": "inconclusive: 79.4 µM [inhibitor, single point]"}, {"molecule": "CCc1ccc(-c2cc3c(N4CCN(c5ccccc5)CC4)nccn3n2)cc1", "Potency": "inconclusive: 5.01 µM [inhibitor, partial curve, poor fit]"}, {"molecule": "Cc1cccc(CN2C(=O)c3ccccc3S(=O)(=O)c3ccc(C(=O)N4CCN(c5cc(C)ccc5C)CC4)cc32)c1", "Potency": "inconclusive: 10 µM [inhibitor, partial curve]"}, {"molecule": "CCN1CCc2c(C#N)c(N3CCOCC3)nc(NCc3ccccc3)c2C1", "Potency": "inconclusive: 89.1 µM [inhibitor, single point]"}, {"molecule": "COc1ccc(S(=O)(=O)Nc2nc3ccccc3nc2NCC2CCCO2)cc1", "note": "(centres undefined)", "Potency": "inconclusive: 50.1 µM [inhibitor, partial curve, poor fit]"}, {"molecule": "CC1=C(C(=O)OC2CCC(C)CC2)C(c2ccc(O)c([N+](=O)[O-])c2)NC(=O)N1", "note": "(centres undefined)", "Potency": "inconclusive: 89.1 µM [inhibitor, single point]"}, {"molecule": "Cc1ccc(S(=O)(=O)N2c3ccccc3NC(=O)CC2C)cc1", "note": "(centres undefined)", "activity, negative = inhibition": "inactive: 20.2%"}, {"molecule": "CC1Cc2nc(SCC(=O)c3ccccc3)n(Cc3ccccc3)c(=O)c2S1", "note": "(centres undefined)", "Potency": "inconclusive: 31.6 µM [inhibitor, single point]"}, {"molecule": "CCOc1ccc(N(CC(=O)N2CCCCCC2)S(C)(=O)=O)cc1", "Potency": "inconclusive: 56.2 µM [inhibitor, partial curve]"}, {"molecule": "CN(C)c1nc(N(C)C)n(Cc2c(Cl)cccc2Cl)n1", "Potency": "inconclusive: 3.55 µM [inhibitor, full curve, poor fit]"}, {"molecule": "CC(C)n1cnnc1SCC(=O)NNC(=O)COc1ccc(Cl)cc1", "activity, negative = inhibition": "inactive: -14.5% [at 102 µM]"}, {"molecule": "COc1ccc(-c2coc3c(C)c4oc(=O)c(CCC(=O)O)c(C)c4cc23)cc1", "Potency": "inconclusive: 17.8 µM [inhibitor, single point]"}, {"molecule": "CCOC(=O)c1sc2c(c1C)c(=O)n(CCO)c(=O)n2Cc1ccccc1", "activity, negative = inhibition": "inactive: -27.9% [at 2.33 µM]"}, {"molecule": "Cc1ccc(/C=N/Nc2nc3ccccc3s2)o1", "Potency": "inconclusive: 39.8 µM [inhibitor, single point]"}, {"molecule": "CC(C)(C)C1CCc2c(sc(NC(=O)c3ccncc3)c2C(=O)Nc2ccccc2Cl)C1", "note": "(centres undefined)", "Potency": "active: 2.24 µM"}, {"molecule": "COc1ccc(N2CCN(C(=O)CCn3cnc4onc(-c5ccc(F)cc5)c4c3=O)CC2)cc1", "Potency": "active: 14.1 µM"}, {"molecule": "COc1cc(/C=N\\Nc2ccc([N+](=O)[O-])cn2)ccc1OCC(=O)O", "Potency": "inconclusive: 89.1 µM [inhibitor, single point]"}, {"molecule": "CCOc1ccc(OCCC(=O)N(CC(=O)Nc2ccccc2C(F)(F)F)Cc2ccco2)cc1", "Potency": "active: 44.7 µM"}, {"molecule": "Cc1ccc([C@@H]2[C@@H]3C(=O)N(C)C(=O)[C@@H]3[C@]3(C)C(=O)N(Cc4ccc(-c5ccccc5)cc4)CC(=O)N23)o1", "Potency": "inconclusive: 89.1 µM [inhibitor, single point]"}, {"molecule": "Cc1ccc(-c2csc(Nc3ccccn3)n2)cc1", "Potency": "inconclusive: 89.1 µM [inhibitor, single point]"}, {"molecule": "COc1cc(C=O)ccc1Oc1nc(Nc2ccc(F)cc2F)nc(N2CCOCC2)n1", "Potency": "inconclusive: 89.1 µM [inhibitor, partial curve, poor fit]"}, {"molecule": "COC(=O)CCC(=O)NNC(=O)C1CC1(c1ccccc1)c1ccccc1", "note": "(centres undefined)", "activity, negative = inhibition": "inactive: 40.1% [at 102 µM]"}, {"molecule": "COc1ccc2nc(N3CCN(C(=O)c4ccco4)CC3)sc2c1", "activity, negative = inhibition": "inactive: -29.3%"}, {"molecule": "CCCCNc1ccc(C(=O)O)cc1", "activity, negative = inhibition": "inactive: 4.95% [at 102 µM]"}, {"molecule": "CN(Cc1ccccc1)Cc1c(O)ccc2ccccc12", "Potency": "active: 8.91 µM"}, {"molecule": "CSCCC(NC(=O)c1cccc(C)c1)C(=O)OCC(=O)NC(=O)c1cccn1C", "note": "(centres undefined)", "Potency": "inconclusive: 0.891 µM [inhibitor, full curve, poor fit]"}, {"molecule": "NC(=O)CC(NC(=O)c1ccccc1)c1ccc(NCCN2CCCCC2)c([N+](=O)[O-])c1", "note": "(centres undefined)", "Potency": "inconclusive: 79.4 µM [inhibitor, partial curve, poor fit]"}, {"molecule": "COc1ccccc1N1CCN(C2CCN(C3CCC(c4ccccc4)CC3)CC2)CC1", "note": "(centres undefined)", "Potency": "active: 50.1 µM"}, {"molecule": "COc1ccccc1C(=O)OCCN1CCOCC1", "Potency": "inconclusive: 28.2 µM [inhibitor, single point]"}, {"molecule": "O=C(OCC(=O)N1CCCc2ccccc21)c1ccc(F)c(S(=O)(=O)N2CCOCC2)c1", "Potency": "inconclusive: 28.2 µM [inhibitor, partial curve, poor fit]"}, {"molecule": "O=C(CN1C(=O)NC2(CCCCCC2)C1=O)NCc1cccs1", "Potency": "inconclusive: 89.1 µM [inhibitor, single point]"}, {"molecule": "Cn1ncc(Cl)c1C(=O)N1CCN(c2ncccn2)CC1", "Potency": "inconclusive: 89.1 µM [inhibitor, single point]"}]}]}
